# From PubChem BioAssay AID1745853 (National Center for Advancing Translational Sciences (NCATS), 2022)
# Where “and” joins values, the source holds several entries; their conditions need not be identical. Equal entries are not always repeated. The list shows a part of the results. The main result of the screen is listed elsewhere. These columns were measured beside it and carry no call.
# Legend:
# Assay in all cases: Primary Screen for Target Class Profiling of Small Molecule Inhibitors of Methyltransferases
# [1] = target: Glycine N-methyltransferase (Homo sapiens) (UniProt Q14749); settings: purified enzyme, MTase-Glo SAH luminescence; measured here: GNMT inhibition; at 40 µM; stronger effect = lower value
# Procedure, shortened: (§1)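 Each enzyme was reacted with SAM and its substrate, with compounds tested once at 40 uM; SAH formed was read by MTase-Glo luminescence.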
# [2] = target: Guanidinoacetate N-methyltransferase (Homo sapiens) (UniProt Q14353); settings: purified enzyme, MTase-Glo SAH luminescence; measured here: GAMT inhibition; at 40 µM; stronger effect = lower value
# Procedure, shortened: as §1
# [3] = target: Histamine N-methyltransferase (Homo sapiens) (UniProt P50135); settings: purified enzyme, MTase-Glo SAH luminescence; measured here: HNMT inhibition; at 40 µM; stronger effect = lower value
# Procedure, shortened: as §1
# [4] = target: Nicotinamide N-methyltransferase (Homo sapiens) (UniProt P40261); settings: purified enzyme, MTase-Glo SAH luminescence; measured here: NNMT inhibition; at 40 µM; stronger effect = lower value
# Procedure, shortened: as §1
# [5] = target: Phenylethanolamine N-methyltransferase (Homo sapiens) (UniProt P11086); settings: purified enzyme, MTase-Glo SAH luminescence; measured here: PNMT inhibition; at 40 µM; stronger effect = lower value
# Procedure, shortened: as §1
# On the % scale 0 is the no-effect control and ±100 the full control effect.
Structure (SMILES),"activity change, negative = inhibition [1]","activity change, negative = inhibition [2]","activity change, negative = inhibition [3]","activity change, negative = inhibition [4]","activity change, negative = inhibition [5]"
COc1cc(CC2COC(c3ccc(OC4OC(CO)C(O)C(O)C4O)c(OC)c3)C2CO)ccc1O (stereo not drawn),0%,6.71%,7.94%,-2.93%,7.63%
CN[C@H](C(=O)N[C@H](C(=O)N(C)[C@H](/C=C(\C)C(=O)O)C(C)C)C(C)(C)C)C(C)(C)c1ccccc1,3.32%,-5.99%,1.85%,-13.6%,-3.26%
CCCn1c(=O)c2ccc(Cl)cc2n2c(=O)n(Cc3cccc(F)c3)nc12,2.85%,5.47%,11.8%,1.46%,3.9%
CCc1ccc(CNC(=O)c2ccc3c(=O)nc4c(-c5ccc(OC)cc5)n[nH]n4c3c2)cc1,4.07%,0%,1.21%,5.01%,3.21%
COCCN1C(=O)N(C)C(=O)C12CCN(Cc1cc(F)ccc1F)C2 (stereo not drawn),-4.63%,-6.63%,-0.811%,-11.7%,-7.19%
Cc1ccc(Cn2c(=O)c3ccccc3n3c(-c4ccc(Cl)cc4)nnc23)cc1,-8.6%,5.1%,3.76%,-0.27%,-3.85%
CCc1ccccc1N1C(=O)c2cc(-c3ccccc3)nn2CC1(C)C(=O)NCCCOC (stereo not drawn),7.17%,0.444%,8.36%,11.5%,1.4%
O=C(O)[C@H]1C[C@@H](C(=O)NCc2cccnc2)CN(Cc2ccccn2)C1,-5.94%,-7.41%,-4.62%,-14.8%,-5.26%
CC(=O)O[C@]1(C(C)=O)CC[C@H]2[C@@H]3C[C@H](C)C4=CC(=O)C=C[C@]4(C)[C@@]3(F)[C@@H](O)C[C@@]21C,-1.95%,5.73%,11.4%,-9.1%,4.74%
CCc1cc2c(cc3n2CC(C)(C(=O)NC2CCCCCC2)N(Cc2cccc(F)c2)C3=O)s1 (stereo not drawn),-7.43%,0.226%,-6.04%,-8.69%,-8.74%
Cc1ccc(C)c(C(=O)Cn2nc3n(C(C)C)c(=O)c4ccc(C(=O)NC5CCCC5)cc4n3c2=O)c1,5.21%,0%,9.73%,2.35%,3.83%
O=C(Cc1cccc(Cl)c1)N1CCC(C(=O)N2CCC(c3ccccc3)CC2)CC1,-8.67%,-8.27%,-4.72%,-15.7%,4.36%
C=Cc1ccc(Cn2nc3n(C(C)C)c(=O)c4ccc(C(=O)NCC(C)C)cc4n3c2=O)cc1,-2.42%,0.41%,-3.5%,-3.75%,-2.53%
COCc1noc([C@@H]2CC(F)(F)CN2C(=O)c2cnc(C)cn2)n1,-3.05%,-2.86%,0.718%,-9.85%,-3.76%
CNC(=O)[C@@H](C1CC1)N1CCC[C@H]1C(=O)N1CCOCC1,0.019%,-3.3%,0.711%,1.67%,0.63%
COc1ccc(-c2nn(-c3ccccc3C)cc2CN2CCCN(C)CC2)cc1F,-8.38%,-10.2%,-13.4%,-19.3%,-10.6%
CCN1CCC[C@@H]1CNC(=O)c1ccc2c(c1)NC(=O)c1cccc(C)c1S2,-4.58%,9.32%,-49.1%,-20.6%,-5.89%
CC1OC(OC2C(O)C(OC3CCC4(C)C(CCC5(C)C4CC=C4C6CC(C)(COC7OC(CO)C(O)C(O)C7O)CC(O)C6(C)CCC45C)C3(C)C)OC(C(=O)O)C2O)C(O)C(O)C1OC1OCC(O)C(O)C1O (stereo not drawn),-3.74%,-8.99%,6.92%,-20.6%,3.18%
CCC(C)NC(=O)c1ccc2c(=O)n(CC(C)C)c3n[nH]c(=O)n3c2c1 (stereo not drawn),-5.83%,0%,4.52%,-4.06%,-7.51%
CNC(=O)C(C)(C)N1CCC[C@H]1C(=O)NCc1ccccc1,-0.558%,-3.34%,1.78%,-4.19%,-4.9%

Structure (SMILES),"activity change, negative = inhibition [1]","activity change, negative = inhibition [2]","activity change, negative = inhibition [3]","activity change, negative = inhibition [4]","activity change, negative = inhibition [5]"
CCCCc1nn(CC(=O)N2CCSCC2)c(=O)n1CCc1ccccc1,-6.94%,-13%,-3.86%,-18.7%,-2.64%
CC(=O)NC1=NN(C(C)=O)C(C)(c2ccccc2)S1 (stereo not drawn),1.9%,3.27%,12.2%,-13.2%,5.22%
NC(Cc1ccc(Cl)cc1)C(=O)O (stereo not drawn),1.09%,9.57%,4.79%,-1.26%,10.1%
O=C(Cc1ccsc1)N1CCC2(CC1)N=C(c1cccc(Br)c1)NO2,-2.92%,-1.6%,-1.32%,6.76%,-0.161%
Cc1cc(C(C)(C)C)c(O)c(C)c1CC1=NCCN1,6.84% and -1.4%,5.86% and 9.36%,-0.68% and 1.89%,-7.34% and -5.5%,0.224% and 2.95%
CC(C)CCN1C(=O)c2cc3sccc3n2CC1(C)C(=O)NC1CCCC(C)C1C (stereo not drawn),-2.07%,4.27%,0.27%,-1.56%,-2.91%
CC(CN1C(=O)c2cc(-c3ccco3)nn2CC1(C)C(=O)NC1CCCCCC1)c1ccccc1 (stereo not drawn),-0.421%,-2.3%,3.89%,-9.15%,-3.94%
COc1ccccc1CNC(=O)CCc1nnc2n(Cc3ccc(F)cc3)c(=O)c3ccccc3n12,-11%,0%,3.73%,4.45%,0.408%
COc1cccc(Cn2nc3n(Cc4ccc(C)cc4)c(=O)c4ccc(C(=O)NC(C)C)cc4n3c2=O)c1,8.13%,2.49%,13.2%,8.31%,9.46%
O=C(CCc1nnc2n(Cc3ccc(Cl)cc3)c(=O)c3ccccc3n12)NCCCN1CCOCC1,-6.66%,0.191%,-7.03%,1.04%,-3.36%
CN(C)CCCN1c2ccccc2Sc2ccccc21,5.83%,6.32%,5.89%,-13.8%,-6.48%
Cc1ccc(NC(=O)CSc2nnc3n(CC(C)C)c(=O)c4ccc(C(=O)NC(C)C)cc4n23)cc1,-4.28%,-13.7%,3.13%,-5.68%,-2.83%
CCCCS(=N)(=O)CC[C@H](N)C(=O)O (stereo partly drawn),-7.23%,-0.62%,-1.69%,6.94%,-3.81%
CCCc1ccc(CN2CCC(c3nnc(Cn4ccnc4)n3C3CC3)CC2)o1,-3.2%,-3.96%,-6.31%,-3.5%,-1.33%
NC(=O)c1ccc(OCC2NC(=O)C3CCCN3C2=O)cc1 (stereo not drawn),-3.53%,-2.89%,0.808%,-11.4%,1.81%
COc1ccc(CNC(=O)CCC2CCCN(C(=O)CCN3CCCCO3)C2)c(OC)c1 (stereo not drawn),-5.53%,-12.4%,-4.81%,-25.1%,-14.1%
CC1CCC(NC(=O)C2(C)Cn3c(cc4occc43)C(=O)N2C2CCCCC2)CC1 (stereo not drawn),-0.955%,2.69%,4.08%,-3.44%,2.44%
CCOc1cccc2c1OC(c1ccc(F)cc1)C([N+](=O)[O-])=C2 (stereo not drawn),–,1.74%,–,-8.09%,4.05%
C=C(CC/C=C(\C)C(=O)O)C1(O)CC=C(C)CC1 (stereo not drawn),0%,0.833%,0.024%,-8.12%,3.92%
COc1ccc(NS(=O)(=O)c2ccc3[nH]c(=O)[nH]c3c2)c(OC)c1,-0.373%,4.08%,-2.98%,-7.22%,-13.9%

Structure (SMILES),"activity change, negative = inhibition [1]","activity change, negative = inhibition [2]","activity change, negative = inhibition [3]","activity change, negative = inhibition [4]","activity change, negative = inhibition [5]"
Cc1ccc(-c2nnc3n(CCc4ccccc4)c(=O)c4ccccc4n23)cc1,-7.81%,5.72%,-0.901%,-9.46%,-7.94%
CCC(C)NC(=O)c1ccc2c(=O)n(C(C)C)c3nn(CC(=O)Nc4ccc(C)cc4)c(=O)n3c2c1 (stereo not drawn),5.45%,5.33%,4.42%,1.68%,6.27%
Fc1cccc(CN(C2=NCCN2)c2c(Cl)cccc2Cl)c1,5.53%,9.52%,-46.5%,-25%,5.14%
CCOC(=O)C1CCN(C(=O)CCn2ccc3cc(S(=O)(=O)N4CCCCC4)ccc32)CC1,5.49%,0.766%,1.58%,4.99%,1.33%
COc1ccc(-c2n[nH]n3c2nc(=O)c2ccc(C(=O)NCc4ccccc4OC)cc23)cc1,-8.33%,4.21%,0.615%,1.44%,-1.4%
Cn1c(=O)n(C)c2cc(S(=O)(=O)Nc3cccc(F)c3)ccc21,10.7%,0%,10.4%,2.24%,2.96%
O=C1NC2CCc3nc4ccccc4c(=O)n3C2=Nc2ccccc21 (stereo not drawn),3.13%,4.75%,13.5%,-7.24%,5.22%
CC(=O)OC[C@]1(O)[C@H]2[C@H](OC(=O)CC(C)C)OC=C(CO[C@@H]3O[C@H](CO)[C@@H](O)[C@H](O)[C@H]3O)[C@H]2C[C@@H]1O,-1.83%,1.46%,8.37%,-11.6%,6.95%
O=C(COc1ccc2c(-c3ccccc3)cc(=O)oc2c1)c1ccc(Cl)cc1,-0.13%,0.271%,4.26%,2.79%,-0.096%
CCN(Cc1noc(C2CCC2)n1)C(=O)CC1C(=O)NCCN1CC(C)C (stereo not drawn),-3.39%,0.041%,-1.2%,-6.95%,-2.35%
CC(C)(C(=O)O)c1ccc(C(O)CCCN2CCC(C(O)(c3ccccc3)c3ccccc3)CC2)cc1 (stereo not drawn),1.87% and 11.3%,6.16% and 15.9%,9.46% and 12.5%,-14.9% and -2.41%,3.3%
CN1C(=O)c2cc(C(=O)NCCCN3CCCC3=O)nn2CC1(C)C(=O)NC1CCCCC1 (stereo not drawn),8.31%,0.956%,8.02%,5.84%,4.19%
COC1=Cc2c(nc3n(c2=O)C(C)C(=O)NC3(O)C(C)C)OC=C1 (stereo not drawn),-5.18%,-7.44%,0.237%,-14.4%,-2.72%
COc1ccc(-c2cc3n(n2)CC(C)(C(=O)NCc2ccccc2)N(c2cccc(SC)c2)C3=O)cc1 (stereo not drawn),-1.35%,4.6%,0.468%,-2.54%,-2.81%
CCCCNc1nc2c(-c3ccccc3)nnn2c2ccccc12,-0.666%,3.97%,-5.39%,-5.45%,-8.06%
Oc1ccc2nc(CN3CCC(Cc4ccccc4F)CC3)[nH]c2c1,-1.44%,-4.88%,0.719%,-25.4%,-12.4%
Cc1cccc(CN2CCN3C(=O)N(Cc4ccc(F)cc4)C[C@H]3C2)n1,-7.81%,-13.9%,-4.42%,-12.7%,-7.73%
Cc1noc(=O)c2ccc(NC(=O)C(O)(CC(C)(C)c3cccc4c3OCC4)C(F)(F)F)cc12 (stereo not drawn),0.207%,1.71%,7.08%,-15.6%,-1.66%
Cc1ccc(N2C(=O)c3cc(C(C)(C)C)nn3CC2(C)C(=O)NCc2ccccc2)c(C)c1 (stereo not drawn),3.92%,6.5%,-1.67%,4.21%,-1.48%
CCCN1C(=O)c2c(C(=O)Nc3cccc(Cl)c3)ncn2CC1(C)C(=O)NCc1ccc(OC)cc1 (stereo not drawn),-10.3%,0%,-1.35%,-1.39%,-1.11%
